Assay results reported in PMC4336329 (PLoS ONE, 2015).
About 2,200 (0.71%) of roughly 310,000 compounds showed an effect of 50% or more. Effects have a minus sign here. Some of the results follow.

These molecules were tested against human ether-à-go-go-related gene (hERG) potassium channel (human, UniProt Q12809) (assay: primary screen, population patch clamp on CHO cells stably expressing hERG).
Chain of human ether-à-go-go-related gene (hERG) potassium channel (Q12809 whole entry, looked up): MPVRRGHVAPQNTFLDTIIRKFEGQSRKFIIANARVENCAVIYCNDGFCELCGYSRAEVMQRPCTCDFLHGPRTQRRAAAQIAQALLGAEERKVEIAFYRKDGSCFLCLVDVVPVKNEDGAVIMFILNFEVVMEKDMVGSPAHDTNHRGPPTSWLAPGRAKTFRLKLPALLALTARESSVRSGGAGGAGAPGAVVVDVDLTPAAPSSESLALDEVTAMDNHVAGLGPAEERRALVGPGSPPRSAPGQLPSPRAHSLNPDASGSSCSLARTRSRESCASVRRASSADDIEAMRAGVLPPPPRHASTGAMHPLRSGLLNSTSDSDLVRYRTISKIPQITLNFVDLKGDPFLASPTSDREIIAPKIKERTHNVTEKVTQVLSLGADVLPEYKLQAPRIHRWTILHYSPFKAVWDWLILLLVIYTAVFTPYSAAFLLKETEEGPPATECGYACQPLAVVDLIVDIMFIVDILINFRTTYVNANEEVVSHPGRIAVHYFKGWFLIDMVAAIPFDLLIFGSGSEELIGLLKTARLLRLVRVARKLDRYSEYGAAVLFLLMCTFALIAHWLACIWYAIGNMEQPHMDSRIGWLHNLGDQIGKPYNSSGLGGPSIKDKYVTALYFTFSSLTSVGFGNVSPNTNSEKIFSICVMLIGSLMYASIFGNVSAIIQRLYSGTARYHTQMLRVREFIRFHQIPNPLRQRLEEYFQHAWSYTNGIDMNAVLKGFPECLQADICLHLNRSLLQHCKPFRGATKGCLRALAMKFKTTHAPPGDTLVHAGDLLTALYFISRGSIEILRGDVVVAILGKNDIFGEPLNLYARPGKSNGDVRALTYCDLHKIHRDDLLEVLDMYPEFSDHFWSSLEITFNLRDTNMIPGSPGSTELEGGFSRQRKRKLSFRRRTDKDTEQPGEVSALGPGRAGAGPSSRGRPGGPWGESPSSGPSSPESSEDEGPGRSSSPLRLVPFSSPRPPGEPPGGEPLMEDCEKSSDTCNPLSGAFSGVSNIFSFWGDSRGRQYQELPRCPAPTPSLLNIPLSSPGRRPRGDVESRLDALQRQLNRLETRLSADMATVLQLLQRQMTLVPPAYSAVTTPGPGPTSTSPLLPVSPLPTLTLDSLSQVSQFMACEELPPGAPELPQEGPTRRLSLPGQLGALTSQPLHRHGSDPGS

| SMILES | hERG current change (%, negative = inhibition) at 1uM [%] |
| --- | --- |
| COCCNC(=O)c1ccccc1N(Cc1ccccc1)S(=O)(=O)c1ccc(C)cc1 | 5.11 |
| O=C(Nc1ccccc1C(=O)Nc1ccncc1)c1ccccc1 | 11 |
| CC1CC2C3CCC4=CC(=O)C=CC4(C)[C@@]3(Cl)C(O)CC2(C)C1(O)C(=O)CO (stereo partly shown) | 11.3 |
| O=c1c2c3c(sc2nc2n1CCCCC2)CCCC3 | 7.53 |
| Cn1cccc1/C=N/NC(=O)c1sc2ccccc2c1Cl | 13.1 |
| Oc1ccc(CCNc2ncnc3ccc(Cl)cc23)cc1 | 2.36 |
| COc1ccc(CCNC(=O)CCCOc2cccc(C)c2C)cc1OC | 0.536 |
| Cc1c(NC(=O)C2(C)CCCCC2)c(=O)n(-c2ccccc2)n1C | -0.514 |
| COC/C=C/C1=CC2=CC(=O)C(C)(OC(=O)c3cnc4ccccc4n3)C(=O)C2=CN1Cc1ccccc1 (stereo not shown) | -0.128 |
| CCN(CC)CCCN(C(=O)c1cccc(C)c1)c1nc(-c2ccc(OC)cc2)cs1 | -22.8 |
| O=C(Nc1ccc2c(c1)OCCO2)c1ccc(Br)o1 | 2.34 |
| COc1cc(C(=O)N2CCCN(C)CC2)cc(OC)c1C.Cl | 15.6 |
| O=C(Nc1ccc(F)cc1)/C(Cl)=C/c1ccccc1 | 11 |
| COc1ccc(S(=O)(=O)N2CCC(C(=O)N3CCN(c4ccccc4OC)CC3)CC2)cc1 | 12.9 |
| CC(=O)Nc1ccc(S(=O)(=O)N(C)c2ccccc2)cc1 | -0.494 |
| Cn1c(SCC(=O)Nc2ccc(F)cc2)nnc1-c1cccnc1 | -2.78 |
| CCNC(=S)N(CCc1cccc(C)c1)Cc1cc2cc(OC)c(OC)cc2[nH]c1=O | 6.25 |
| COc1cccc(CN2C(=O)C3CCCN3c3ccc(S(=O)(=O)N4CCOCC4)cc32)c1 (stereo not shown) | 11 |
| CN(C)CCNC(=O)c1ccc2c(c1)NC(=O)c1ccccc1S2 | 12.5 |
| O=C1CCN(Cc2ccccc2)C(=O)N1c1ccccc1 | -5.59 |
| CCOC(=O)c1c(-c2ccccc2)csc1NC(=O)CSc1nc(N)cc(N)n1 | 12 |
| COC(=O)c1ccc(COc2ccccc2/C=C(\C#N)C(=O)NC(C)C)cc1 | 4.15 |
| COc1ccc(-c2noc(-c3ccccc3C(=O)Nc3cccc(OC)c3)n2)cc1 | 1.23 |
| CC(=O)C1=C(O)C(=O)N(c2ccc(F)cc2)C1c1ccc(C)cc1 (stereo not shown) | 14.7 |
| Cc1ccc(C(=O)NN2C(=O)C3C4C=CC(C5CC45)C3C2=O)cc1 (stereo not shown) | 10.3 |
| Nc1ncccc1OCc1ccc(Br)cc1 | 2.16 |
| Cc1c(NC(=O)C(C)OC(=O)CCc2c[nH]c3ccccc23)c(=O)n(-c2ccccc2)n1C (stereo not shown) | 14.3 |
| CCOC(=O)c1c(NC(=O)CSc2nncs2)sc(C)c1-c1ccccc1 | 9.46 |

| SMILES | hERG current change (%, negative = inhibition) at 1uM [%] |
| --- | --- |
| COc1ccc(-c2c3c(=O)n(C)c(=O)n(C)c3cn2N2CCOCC2)cc1 | -17.8 |
| CCOC(=O)COc1ccc2c3c(c(=O)oc2c1C)CCC3 | 14.8 |
| Cc1csc(SCc2ccccc2C(=O)O)n1 | 8.4 |
| O=[N+]([O-])c1ccc(-c2nnc(-c3ccccc3)c(N3CCOCC3)n2)cc1 | -7.26 |
| CN(C)S(=O)(=O)c1ccc(N2CCCC2)c(C(=O)NCC2COc3ccccc3O2)c1 (stereo not shown) | -1.12 |
| O=C(Cn1cnc2c(nnn2Cc2ccc(F)cc2)c1=O)NCc1ccco1 | -3.39 |
| COCCSc1nc(N)c(NC(=O)c2ccco2)c(=O)[nH]1 | 14.1 |
| CCn1c(SCC(=O)Nc2cc(C)ccc2C)nnc1-c1cnccn1 | 0.733 |
| Cc1nc2ccc(Oc3ccccc3)cc2s1 | 7.35 |
| CCCCCC(O)(CCN1CCCCC1)c1ccccc1.Cl (stereo not shown) | -84.7 |
| Cc1nc(SCC(N)=O)[nH]c(=O)c1Cc1ccc(OC(C)C)cc1 | 10.1 |
| COC(=O)c1ccccc1NC(=O)CN(Cc1ccc(Cl)cc1)S(C)(=O)=O | -6.98 |
| CN(C(=O)c1ccccc1C(=O)OCC(=O)c1ccc(F)cc1)c1ccccc1 | 2.34 |
| Cc1ccc2c(c1)N(CCC(=O)NCc1cccnc1)C(=O)CO2 | 3.33 |
| CSc1sc(C(=O)N(C)C)c2c1S(=O)(=O)N(C)c1ccccc1-2 | 11.9 |
| CC(=O)Nc1ccc(SCC(=O)N2CCN(S(=O)(=O)c3ccccc3)CC2)cc1 | 6.2 |
| C[C@]12CCC3C(CC=C4C[C@@H](O)CC[C@@]43C)C1CCC2[C@]1(C)CCC(=O)O1 (stereo partly shown) | 5.54 |
| CCOc1ccccc1NC(=O)c1cccc(NC(=O)C2CCCC2)c1 | 9.43 |
| Cc1ccc(-c2nc3c(c(=O)[nH]c(=O)n3CC(C)C)n2CC(C)C)cc1[N+](=O)[O-] | 6.12 |
| O=C(NCCc1c[nH]c2ccccc12)c1ccco1 | 8.39 |
| CCCCN(Cc1ccccc1)S(=O)(=O)c1ccc2c(c1)n(C)c(=O)c(=O)n2C | 4.18 |
| Cc1ccc(C)c(NC(=O)CN(C)S(=O)(=O)c2ccccc2)c1 | -4.38 |
| O=C1CCc2cc(S(=O)(=O)N3CCC(C(=O)NC4CCCc5ccccc54)CC3)ccc2N1 (stereo not shown) | 14.8 |
| Cc1c(NC(=O)c2cccs2)cccc1[N+](=O)[O-] | 17.3 |
| Cc1ccc(S(=O)(=O)N2CCN(C(=O)C3CC(=O)N(c4ccc5c(c4)OCCO5)C3)CC2)cc1 (stereo not shown) | -1.83 |
| O=C(NCc1ccco1)/C(=C\C=C\c1ccccc1)NC(=O)c1ccccc1Br | -41 |
| Cc1cc(/C=C2/C(=N)N3C(c4ccccc4)=CSC3=NC2=O)c(C)n1-c1ccccc1 | -3.2 |
